From the supplement of paper PMC8728848
This is one part of the list.

Experiments:
Test in all cases: glycan array binding signal (z-score within array); higher = stronger binding
Settings in all cases: glycan notation: IUPAC condensed, linker removed
[1] = molecular target: Gal(b1-4)GlcNAc(b1-2)[Gal(b1-4)GlcNAc(b1-6)]Man(a1-6)[GlcNAc(b1-4)][Gal(b1-4)GlcNAc(b1-2)Man(a1-3)]Man(b1-4)GlcNAc(b1-4)GlcNAc
In short: (§1)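 Glycan array data were curated from 3228 arrays in the Consortium for Functional Glycomics database and kept only where the protein sequence was available. Glycan names were converted to IUPAC-condensed notation, and columns mapping to the same glycan were averaged. The binding signal is a within-array Z-score, averaged across arrays of the same protein sequence at different concentrations or buffers and across linkers. Negative Z-scores can be read as non-binding.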

[2] = molecular target: Gal(b1-4)GlcNAc(b1-2)[Gal(b1-4)GlcNAc(b1-6)]Man(a1-6)[GlcNAc(b1-4)][Gal(b1-4)GlcNAc(b1-2)[Gal(b1-4)GlcNAc(b1-4)]Man(a1-3)]Man(b1-4)GlcNAc(b1-4)[Fuc(a1-6)]GlcNAc
In short: as §1

[3] = molecular target: Gal(b1-4)GlcNAc(b1-3)Gal(b1-3)GalNAc
In short: as §1

[4] = molecular target: Gal(b1-4)GlcNAc(b1-3)Gal(b1-3)GlcNAc
In short: as §1

[5] = molecular target: Gal(b1-4)GlcNAc(b1-3)Gal(b1-4)Glc
In short: as §1

[6] = molecular target: Gal(b1-4)GlcNAc(b1-3)Gal(b1-4)GlcNAc
In short: as §1

[7] = molecular target: Gal(b1-4)GlcNAc(b1-3)Gal(b1-4)GlcNAc(b1-2)Man(a1-3)[Gal(b1-4)GlcNAc(b1-3)Gal(b1-4)GlcNAc(b1-2)Man(a1-6)]Man(b1-4)GlcNAc(b1-4)GlcNAc
In short: as §1

[8] = molecular target: Gal(b1-4)GlcNAc(b1-3)Gal(b1-4)GlcNAc(b1-2)Man(a1-3)[Gal(b1-4)GlcNAc(b1-3)Gal(b1-4)GlcNAc(b1-2)Man(a1-6)]Man(b1-4)GlcNAc(b1-4)[Fuc(a1-6)]GlcNAc
In short: as §1

[9] = molecular target: Gal(b1-4)GlcNAc(b1-3)Gal(b1-4)GlcNAc(b1-2)[Gal(b1-4)GlcNAc(b1-3)Gal(b1-4)GlcNAc(b1-6)]Man(a1-6)[Gal(b1-4)GlcNAc(b1-3)Gal(b1-4)GlcNAc(b1-2)Man(a1-3)]Man(b1-4)GlcNAc(b1-4)GlcNAc
In short: as §1

[10] = molecular target: Gal(b1-4)GlcNAc(b1-3)Gal(b1-4)GlcNAc(b1-2)[Gal(b1-4)GlcNAc(b1-3)Gal(b1-4)GlcNAc(b1-6)]Man(a1-6)[Gal(b1-4)GlcNAc(b1-3)Gal(b1-4)GlcNAc(b1-2)Man(a1-3)]Man(b1-4)GlcNAc(b1-4)[Fuc(a1-6)]GlcNAc
In short: as §1

[11] = molecular target: Gal(b1-4)GlcNAc(b1-3)Gal(b1-4)GlcNAc(b1-3)Gal(b1-4)GlcNAc
In short: as §1

[12] = molecular target: Gal(b1-4)GlcNAc(b1-3)Gal(b1-4)GlcNAc(b1-3)Gal(b1-4)GlcNAc(b1-2)Man(a1-3)[Gal(b1-4)GlcNAc(b1-3)Gal(b1-4)GlcNAc(b1-3)Gal(b1-4)GlcNAc(b1-2)Man(a1-6)]Man(b1-4)GlcNAc(b1-4)GlcNAc
In short: as §1

[13] = molecular target: Gal(b1-4)GlcNAc(b1-3)Gal(b1-4)GlcNAc(b1-3)Gal(b1-4)GlcNAc(b1-2)Man(a1-3)[Gal(b1-4)GlcNAc(b1-3)Gal(b1-4)GlcNAc(b1-3)Gal(b1-4)GlcNAc(b1-2)Man(a1-6)]Man(b1-4)GlcNAc(b1-4)[Fuc(a1-6)]GlcNAc
In short: as §1

[14] = molecular target: Gal(b1-4)GlcNAc(b1-3)Gal(b1-4)GlcNAc(b1-3)Gal(b1-4)GlcNAc(b1-2)[Gal(b1-4)GlcNAc(b1-3)Gal(b1-4)GlcNAc(b1-3)Gal(b1-4)GlcNAc(b1-6)]Man(a1-6)[Gal(b1-4)GlcNAc(b1-3)Gal(b1-4)GlcNAc(b1-3)Gal(b1-4)GlcNAc(b1-2)Man(a1-3)]Man(b1-4)GlcNAc(b1-4)[Fuc(a1-6)]GlcNAc
In short: as §1

[15] = molecular target: Gal(b1-4)GlcNAc(b1-3)Gal(b1-4)GlcNAc(b1-3)Gal(b1-4)GlcNAc(b1-3)Gal(b1-4)GlcNAc(b1-2)Man(a1-3)[Gal(b1-4)GlcNAc(b1-3)Gal(b1-4)GlcNAc(b1-3)Gal(b1-4)GlcNAc(b1-3)Gal(b1-4)GlcNAc(b1-2)Man(a1-6)]Man(b1-4)GlcNAc(b1-4)GlcNAc
In short: as §1

[16] = molecular target: Gal(b1-4)GlcNAc(b1-3)Gal(b1-4)GlcNAc(b1-3)Gal(b1-4)GlcNAc(b1-3)Gal(b1-4)GlcNAc(b1-2)Man(a1-3)[Gal(b1-4)GlcNAc(b1-3)Gal(b1-4)GlcNAc(b1-3)Gal(b1-4)GlcNAc(b1-3)Gal(b1-4)GlcNAc(b1-2)Man(a1-6)]Man(b1-4)GlcNAc(b1-4)[Fuc(a1-6)]GlcNAc
In short: as §1

[17] = molecular target: Gal(b1-4)GlcNAc(b1-3)Gal(b1-4)GlcNAc(b1-3)Gal(b1-4)GlcNAc(b1-3)Gal(b1-4)GlcNAc(b1-2)[Gal(b1-4)GlcNAc(b1-3)Gal(b1-4)GlcNAc(b1-3)Gal(b1-4)GlcNAc(b1-3)Gal(b1-4)GlcNAc(b1-6)]Man(a1-6)[Gal(b1-4)GlcNAc(b1-3)Gal(b1-4)GlcNAc(b1-3)Gal(b1-4)GlcNAc(b1-3)Gal(b1-4)GlcNAc(b1-2)Man(a1-3)]Man(b1-4)GlcNAc(b1-4)[Fuc(a1-6)]GlcNAc
In short: as §1

[18] = molecular target: Gal(b1-4)GlcNAc(b1-3)Gal(b1-4)GlcNAc(b1-3)Gal(b1-4)GlcNAc(b1-3)Gal(b1-4)GlcNAc(b1-3)Gal(b1-4)GlcNAc(b1-2)Man(a1-3)[Gal(b1-4)GlcNAc(b1-3)Gal(b1-4)GlcNAc(b1-3)Gal(b1-4)GlcNAc(b1-3)Gal(b1-4)GlcNAc(b1-3)Gal(b1-4)GlcNAc(b1-2)Man(a1-6)]Man(b1-4)GlcNAc(b1-4)GlcNAc
In short: as §1

[19] = molecular target: Gal(b1-4)GlcNAc(b1-3)Gal(b1-4)GlcNAc(b1-3)Gal(b1-4)GlcNAc(b1-3)Gal(b1-4)GlcNAc(b1-3)Gal(b1-4)GlcNAc(b1-2)Man(a1-3)[Gal(b1-4)GlcNAc(b1-3)Gal(b1-4)GlcNAc(b1-3)Gal(b1-4)GlcNAc(b1-3)Gal(b1-4)GlcNAc(b1-3)Gal(b1-4)GlcNAc(b1-2)Man(a1-6)]Man(b1-4)GlcNAc(b1-4)[Fuc(a1-6)]GlcNAc
In short: as §1

[20] = molecular target: Gal(b1-4)GlcNAc(b1-3)Gal(b1-4)GlcNAc(b1-3)Gal(b1-4)GlcNAc(b1-3)Gal(b1-4)GlcNAc(b1-3)Gal(b1-4)GlcNAc(b1-2)[Gal(b1-4)GlcNAc(b1-3)Gal(b1-4)GlcNAc(b1-3)Gal(b1-4)GlcNAc(b1-3)Gal(b1-4)GlcNAc(b1-3)Gal(b1-4)GlcNAc(b1-6)]Man(a1-6)[Gal(b1-4)GlcNAc(b1-3)Gal(b1-4)GlcNAc(b1-3)Gal(b1-4)GlcNAc(b1-3)Gal(b1-4)GlcNAc(b1-3)Gal(b1-4)GlcNAc(b1-2)Man(a1-3)]Man(b1-4)GlcNAc(b1-4)[Fuc(a1-6)]GlcNAc
In short: as §1

[21] = molecular target: Gal(b1-4)GlcNAc(b1-3)Gal(b1-4)GlcNAc(b1-3)Gal(b1-4)GlcNAc(b1-3)Gal(b1-4)GlcNAc(b1-3)Gal(b1-4)GlcNAc(b1-3)Gal(b1-4)GlcNAc(b1-2)Man(a1-3)[Gal(b1-4)GlcNAc(b1-3)Gal(b1-4)GlcNAc(b1-3)Gal(b1-4)GlcNAc(b1-3)Gal(b1-4)GlcNAc(b1-3)Gal(b1-4)GlcNAc(b1-3)Gal(b1-4)GlcNAc(b1-2)Man(a1-6)]Man(b1-4)GlcNAc(b1-4)GlcNAc
In short: as §1

[22] = molecular target: Gal(b1-4)GlcNAc(b1-3)Gal(b1-4)GlcNAc(b1-3)GalNAc
In short: as §1

[23] = molecular target: Gal(b1-4)GlcNAc(b1-3)Gal(b1-4)GlcNAc(b1-3)[Gal(b1-4)GlcNAc(b1-3)Gal(b1-4)GlcNAc(b1-6)]GalNAc
In short: as §1

[24] = molecular target: Gal(b1-4)GlcNAc(b1-3)Gal(b1-4)GlcNAc(b1-6)[Gal(b1-3)]GalNAc
In short: as §1

[25] = molecular target: Gal(b1-4)GlcNAc(b1-3)Gal(b1-4)[Fuc(a1-3)]GlcNAc(b1-3)Gal(b1-4)[Fuc(a1-3)]GlcNAc
In short: as §1

[26] = molecular target: Gal(b1-4)GlcNAc(b1-3)GalNAc
In short: as §1

[27] = molecular target: Gal(b1-4)GlcNAc(b1-3)[Fuc(a1-3)GlcNAc(b1-6)]Gal(b1-4)Glc
In short: as §1

[28] = molecular target: Gal(b1-4)GlcNAc(b1-3)[Gal(b1-4)GlcNAc(b1-6)]Gal(b1-4)GlcNAc
In short: as §1

[29] = molecular target: Gal(b1-4)GlcNAc(b1-3)[GlcNAc(b1-6)]Gal(b1-4)GlcNAc
In short: as §1

[30] = molecular target: Gal(b1-4)GlcNAc(b1-6)Gal(b1-4)GlcNAc
In short: as §1

[31] = molecular target: Gal(b1-4)GlcNAc(b1-6)GalNAc
In short: as §1

[32] = molecular target: Gal(b1-4)GlcNAc(b1-6)[Gal(b1-3)]GalNAc
In short: as §1

[33] = molecular target: Gal(b1-4)GlcNAc(b1-6)[Gal(b1-4)GlcNAc(b1-3)]GalNAc
In short: as §1

Gal(b1-4)GlcNAc6P = molecular target: Gal(b1-4)GlcNAc6P
In short: as §1

Gal(b1-6)Gal = molecular target: Gal(b1-6)Gal
In short: as §1

Gal3S(b1-3)GalNAc = molecular target: Gal3S(b1-3)GalNAc
In short: as §1

Gal3S(b1-3)GlcNAc = molecular target: Gal3S(b1-3)GlcNAc
In short: as §1

[34] = molecular target: Gal3S(b1-3)[Fuc(a1-4)]GlcNAc
In short: as §1

B1: SBD-G4S3-Fc (protein)
chain: MASIPSSASVQLDSYNYDGSTFSGKIYVKNIAYSKKVTVVYADGSDNWNNNGNIIAASFSGPISGSNYEYWTFSASVKGIKEFYIKYEVSGKTYYDNNNSANYQVSTGGGGSGGGGSGGGGSEFVPRDCGCKPCICTVPEVSSVFIFPPKPKDVLTITLTPKVTCVVVDISKDDPEVQFSWFVDDVEVHTAQTQPREEQFNSTFRSVSELPIMHQDWLNGKEFKCRVNSAAFPAPIEKTISKTKGRPKAPQVYTIPPPKEQMAKDKVSLTCMITDFFPEDITVEWQWNGQPAENYKNTQPIMDTDGSYFVYSKLNVQKSNWEAGNTFTCSVLHEGLHNHHTEKSLSHSPGAA
glycan array binding signal (z-score) [1]: 0.227
glycan array binding signal (z-score) [2]: -0.151
glycan array binding signal (z-score) [3]: -0.04
glycan array binding signal (z-score) [4]: 0.422
glycan array binding signal (z-score) [5]: -0.301
glycan array binding signal (z-score) [6]: -0.054
glycan array binding signal (z-score) [7]: 8.04
glycan array binding signal (z-score) [8]: 0.725
glycan array binding signal (z-score) [9]: 0.385
glycan array binding signal (z-score) [10]: 0.249
glycan array binding signal (z-score) [11]: -0.246
glycan array binding signal (z-score) [12]: 0.658
glycan array binding signal (z-score) [13]: 0.765
glycan array binding signal (z-score) [14]: 0.165
glycan array binding signal (z-score) [15]: -0.055
glycan array binding signal (z-score) [16]: 0.041
glycan array binding signal (z-score) [17]: 0.192
glycan array binding signal (z-score) [18]: 1.16
glycan array binding signal (z-score) [19]: 0.995
glycan array binding signal (z-score) [20]: 0.937
glycan array binding signal (z-score) [21]: 0.259
glycan array binding signal (z-score) [22]: 0.227
glycan array binding signal (z-score) [23]: 0.351
glycan array binding signal (z-score) [24]: 0.001
glycan array binding signal (z-score) [25]: -0.383
glycan array binding signal (z-score) [26]: -0.387
glycan array binding signal (z-score) [27]: -0.069
glycan array binding signal (z-score) [28]: -0.023
glycan array binding signal (z-score) [29]: -0.008
glycan array binding signal (z-score) [30]: -0.033
glycan array binding signal (z-score) [31]: -0.065
glycan array binding signal (z-score) [32]: -0.289
glycan array binding signal (z-score) [33]: 0.349
glycan array binding signal (z-score) (Gal(b1-4)GlcNAc6P): -0.307
glycan array binding signal (z-score) (Gal(b1-6)Gal): -0.372
glycan array binding signal (z-score) (Gal3S(b1-3)GalNAc): -0.176
glycan array binding signal (z-score) (Gal3S(b1-3)GlcNAc): 0.08
glycan array binding signal (z-score) [34]: -0.207
